# Data as given in the supplement of paper PMC11417369.
# This is one part of the list.
# Tested on: PfSIP2 AP2 domain 1 (GST-tagged)
# Test: gcPBM binding intensity (ln(normalized median fluorescence intensity)); higher = stronger DNA binding
# Procedure, shortened: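 Binding intensity values are the highest Masliner-normalised natural-log median intensity among replicate spots of either probe orientation. The binding step lasted 1 h in 1× PBS with 1% milk, 0.2 mg/ml BSA, 0.5% salmon testes DNA and 0.03% Triton X-100, using GST-tagged P. falciparum DNA-binding domains expressed in E. coli on an Agilent 4 × 180k array of primer-extended double-stranded 36-bp intergenic genomic probes plus negative controls. Alexa488 anti-GST antibody and a 488 nm scan detected bound protein.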
row,Sequence,gcPBM binding intensity (ln)
1,AAGACAATATATGCAGTGCATATACATACATATATA,8.3
2,GCATAATATACTCTTACACACCATTTCTAAATACAT [CACACA_site4912],7.53
3,AAAAAAAAAAAAAAAAGTACGTATTTTTTTTAAAAT [XGTACX_site2654],7.37
4,TATATTATTTATTAGACACACATTATTAATATATTT [CACACA_site1078],7.08
5,TGGATTTTGTATTAATGTACATATATATATATATAT [XGTACX_site4442],9.57
6,CAGATAGACTTATATGCATGCATTCACATACCAACA [TGCATGCA_site163],7.01
7,AACAACATTTTGTAATGTACATATTTACTTATATTC [XGTACX_site7251],6.85
8,CCTCTTAATATGTGCACACTAAATTATAACATAATT [CACACA_site3259],10
9,TGAAAAGTAAAATACACACACATAATCTAATTTATA [CACACA_site7024],6.76
10,GGTTAACATAAATATATACACACCAATGATGGCATT [CACACA_site1568],6.9
11,AAATAATTAGAAATAGTGCACATAATTAAGGGATAC,10.1
12,TAGAAATATATAAATTGTACATGTTTGTATAATATA [XGTACX_site2097],6.99
13,TATATTATTTATTTTTGTACATATTATGAATGAATA [XGTACX_site3971],6.99
14,TTACCTTTAAATGGATGTACAGAAATTTAAATTGTT [XGTACX_site7044],6.99
15,CTTCCTTCTAAATGCACACGGAAAGTATAAATGTAT [CACACA_site2501],8.34
16,TATTTGTTTTTATATAGTACATAAATATATATATAT [XGTACX_site7834],8.74
17,AAAATAAATATGAACACACACATTTATGCCTTTAAA [CACACA_site1271],6.81
18,AGAGATATAAGAAAAGCACACACACCCAAAAAAAAA [CACACA_site8917],6.91
19,TATATACAAAAAATATGTACATATATATATATATAT [XGTACX_site3497],9.34
20,AAAAAATAAATAAATACACACACACTAATATATATA [CACACA_site8488],7.67
21,ATTATTTATATTATGGTGCATAATTTTGGGTTTCTT,10.2
22,TCAGAGTGAAGTTATACACACATGGTTTTTTTTTTT [CACACA_site2116],6.73

row,Sequence,gcPBM binding intensity (ln)
1,AGAGAGAAAGCTATAACATGCAACAATTTTTAGAAA [TGCATGCA_site95],6.61
2,AGGAGGATATTACACAGTACCCAGTAACTCTACGGA [XGTACX_site1998],6.67
3,AAGTATGCGTTATATACACACATACATTTATATATC [CACACA_site6207],6.91
4,TTTTTTTGATAAAAGGTGCTACAAGATGAATACATA,8.51
5,TTTTTTTTTTTAAATACATGCATGTCCTATTTAAAT [TGCATGCA_site494],6.74
6,ATAAATAAAAAAAAAAAAAAAAAAAAAAAAAAAATA [CACACA_negctrl_site1064],6.86
7,GTTGTATAAAATAATACATGCATGTCCTACATATAT [TGCATGCA_site162],7.16
8,GTAATATATTTTTATGGTACACGAACTAGCCAAAAA [XGTACX_site6307],7.22
9,TAATATATTTATAAGTGTACACATTATATAAATCCC [XGTACX_site8875],7.28
10,AGTAATAACTATATATGTACATATATATATTATTAG [XGTACX_site1113],6.98
11,CCGCATTTTACAGACACACACAATTTATATTACGGT [CACACA_site6974],7.16
12,AAAGATGAATTTTTTACACACACCATTTTATAATAT [CACACA_site3676],6.98
13,TAAAATTTTGTTTGTTGTACTTATTTTCGTGTCAAC [XGTACX_site8277],7.03
14,AAAAGTATAATAAATTGTACTAACAAATATTTATGT [XGTACX_site7721],7.01
15,AAAAAAAAAAAAAAAAAAAAATATATATATATATAT [GTGCAC_negctrl_site426],9.74
16,AATGTAAAACCTCCTACACACACCAATTAACTATTC [CACACA_site2112],6.91
17,TACTTATCGTTAAATTGTACTAAAAAATATTTTTCT [XGTACX_site4665],7.01
18,TTATAATAAAAGGCTTTACAATTATTAAACAAATAA [GTGCAC_negctrl_site480],6.75
19,AAAAAAGAAGAGCACACACACATATATAAATATAAA [CACACA_site631],6.9
20,GCCATTGTACCATCCACACACATATATATCTGTATA [CACACA_site5490],7.54
21,TGGTATTAAGGAGAGGGTACAAAAAAAAAAAAAAAA [XGTACX_site1668],7.04
22,TTCTAATATTTACATAATATATAGAAATATAAAGGT [XGTACX_negctrl_site504],7.4
